Drawing on EP0132540A1 (priority 1981, dated 1983), this text covers Survival rate and MIC for twelve compounds.

Experiment [1] has as its system influenza virus A/WSN. In kind it is in vivo, ICR mice. The following applies: one hour after infection, 15 days after infection.
In experiment [2] the test system is Vesicular stomatitis. Briefly: microbe, parasite or virus in culture. In kind it is cell-based. The following applies: read-out: Minimum Inhibitory Concentration.
For experiment [3], the system named is Influenza A2. Briefly: microbe, parasite or virus in culture. In kind it is cell-based. The following applies: read-out: Minimum Inhibitory Concentration.
The subject of experiment [4] is influenza virus B/GL. In kind it is in vivo, ICR female mice. The conditions noted are these: oral, one hour after infection, 15 days after infection.
Experiment [5] relates to Respiratory virus. Briefly: Antiviral activity in cultured cells (inhibition of cytopathic effect). In kind it is cell-based. The conditions noted are these: Virus I = Respiratory virus; complete inhibition of cytopathic effect by 100 TCID50; read-out: Minimum Inhibitory Concentration. For orientation: Cytopathic effects are the visible damage that an infection or toxin causes in cultured cells.

Each structure is given as a SMILES string. Converted amounts (≈) assume the structure as drawn. Read-outs that look alike come from different tables or passages of the source.

In the case of `C=CCOC(=O)c1cc(S(N)(=O)=O)c(Cl)cc1Cl` [Compound 11, 5-aminosulfonyl-2,4-dichloro-allylbenzoate], the Survival rate was determined as 30% in experiment [1] (intraperitoneal, 30 mg/Kg) and 40% in experiment [1] (intraperitoneal, 100 mg/Kg).

Turning to `O=C(O)c1ccc(Cl)c(S(=O)(=O)N2CCOCC2)c1` [Compound 6, 4-chloro-3-morpholino-sulfonylbenzoic acid], the MIC in experiment [2] and in experiment [3] was 300 µg/mL (≈ 981 µM) in each case.

On to `O=C(O)c1ccc(Cl)c(S(=O)(=O)Nc2ccccc2)c1` [Compound 5, 3-anilinosulfonyl-4-chlorobenzoic acid], for which the MIC in experiment [2] and in experiment [3] was 300 µg/mL (≈ 962 µM) each time.

For the compound `NC12CC3CC(CC(C3)C1)C2` [Amantadine, reference compound], the Survival rate is 40% in experiment [1] (intraperitoneal, 100 mg/Kg); 40% in experiment [1] (oral, 300 mg/Kg); 30% in experiment [4] (dosage 300 mb/kg).

For `CNS(=O)(=O)c1cc(C(=O)O)ccc1Cl` [Compound 1, 4-chloro-3-methylamino-sulfonylbenzoic acid], the MIC in experiment [2] and in experiment [3] was 300 µg/mL (≈ 1200 µM) throughout.

With `CCNS(=O)(=O)c1cc(C(=O)O)ccc1Cl` [Compound 2, 4-chloro-3-ethylamino-sulfonylbenzoic acid], the figures for the MIC in experiment [2], in experiment [3] and in experiment [5] were 300 µg/mL (≈ 1140 µM), 300 µg/mL (≈ 1140 µM) and 100 µg/mL (≈ 379 µM), respectively.

As to `CN(C)S(=O)(=O)c1cc(C(=O)O)ccc1Cl` [Compound 3, 4-chloro-3-dimethyl-aminosulfonylbenzoic acid], the MIC in experiment [2] and in experiment [3] was 300 µg/mL (≈ 1140 µM) each time.

For the compound `CC(C)OC(=O)c1ccc(Br)c(S(N)(=O)=O)c1` [Compound 9, 3-aminosulfonyl-4-bromo-isopropylbenzoate], the Survival rate in experiment [4] (dosage 100 mb/kg) is listed as 30%; in experiment [4] (dosage 300 mb/kg) it was 40%.

`NS(=O)(=O)c1cc(C(=O)O)c(Cl)cc1Cl` [Compound 7, 5-aminosulfonyl-2,4-dichlorobenzoic acid]: the values for the MIC in experiment [2], in experiment [3] and in experiment [5] were 100 µg/mL (≈ 370 µM), 300 µg/mL (≈ 1110 µM) and 30 µg/mL (≈ 111 µM), respectively.

Take `COC(=O)c1ccc(F)c(S(N)(=O)=O)c1` [Compound 8, 3-aminosulfonyl-4-fluoromethylbenzoate]: the Survival rate in experiment [1] (intraperitoneal, 30 mg/Kg) is reported as 40%; in experiment [1] (intraperitoneal, 100 mg/Kg), 50%.

Take `CCCCOC(=O)c1ccc(Br)c(S(N)(=O)=O)c1` [Compound 10, 3-aminosulfonyl-4-bromo-n-butylbenzoate]: the Survival rate is listed as 50% in experiment [1] (intraperitoneal, 10 mg/Kg); 70% in experiment [1] (intraperitoneal, 30 mg/Kg); 50% in experiment [1] (oral, 30 mg/Kg); 60% in experiment [1] (oral, 100 mg/Kg); 60% in experiment [4] (dosage 30 mb/kg); 70% in experiment [4] (dosage 300 mb/kg).

With `CC(C)NS(=O)(=O)c1cc(C(=O)O)ccc1Cl` [Compound 4, 4-chloro-3-isopropyl-aminoslfonylbenzoic acid], the MIC in experiment [2] and in experiment [3] was 300 µg/mL (≈ 1080 µM) in each case.
